The source gives no read counts; variants with many changes may rest on few reads.

The labels stand for the following.
B1: LINE1-mini (parent)
chain: GGCAGAGCUCAACACAGCGUGGCAAAGUGGCUGUGGCUAGACUGCC

In the series the parent is B1. Briefly: self-cleavage, relative activity (ratio to wild type); higher = more cleavage; in vitro, sequencing; the parent is a self-cleaving ribozyme.
G36U U38A G44A: the self-cleavage was found to be 0.05.

For C31A G36C C37U U38C, the self-cleavage was determined as 0.04.

With G33U G40U A41U C42A, the self-cleavage stood at 0.06.

Regarding U32G U34A C42A, the self-cleavage is 0.03.

Consider C31G A39C G40C C42G, for which the self-cleavage was 0.01.

Consider A39U C45A C46A, for which the self-cleavage worked out at 0.12.

Consider U34A A39U C45G, for which the self-cleavage is 0.05.

Take G35C G36U C46A: the self-cleavage turned out to be 0.04.

For U34A G36C G40A, the self-cleavage stood at 0.

Consider C31G G33C C42A, for which the self-cleavage was found to be 0.14.

On to G33A A39C G44U, for which the self-cleavage amounted to 0.01.

Take G35A G36A G40U: the self-cleavage came out at 0.11.

On to C31G G35U G44C, for which the self-cleavage stood at 0.04.

In the case of G35U G44U C46U, the self-cleavage was 0.4.

Turning to U32G A39C A41G, the self-cleavage came out at 0.06.

Consider G33U C37A C45G, for which the self-cleavage stood at 0.04.

With U32A G35C A41G, the self-cleavage was 0.04.

As for G35A A39U U43C, the self-cleavage amounted to 0.07.

With G33A A39G A41U, the self-cleavage is 0.03.

For the variant G35U C37U G40U, the self-cleavage was found to be 0.21.

Turning to C31A G36U G44A, the self-cleavage was 0.18.

As to U32A U34A A39U, the self-cleavage was found to be 0.03.

In the case of C37G A39C G44U, the self-cleavage was determined as 0.04.

In the case of C37G A39C G44C, the self-cleavage turned out to be 0.06.

As to U32A A41G C45U, the self-cleavage came out at 0.

On to A39G U43A G44A, for which the self-cleavage is 0.05.

As for U32A U38G U43C, the self-cleavage was 0.01.

With A39G G40C C42U, the self-cleavage worked out at 0.

For G35A U38A C46G, the self-cleavage was 0.12.

For G33U U43A G44U, the self-cleavage came out at 0.05.

With G33C U38G G40C C42U, the self-cleavage was 0.01.

C31U C37A C45U: the self-cleavage is 0.03.

Regarding C31U U32A G40A, the self-cleavage amounted to 0.04.

As to C31U A39U C42U, the self-cleavage was determined as 0.02.

As for C31A G35A C42U, the self-cleavage was determined as 0.04.

Regarding C31A G40U C46A, the self-cleavage amounted to 0.01.

Regarding C31U U34A A39C G40C, the self-cleavage was 0.05.

Turning to U32G G35U A41U C42U, the self-cleavage worked out at 0.05.

In the case of U38C G40U A41C, the self-cleavage came out at 0.46.

As for G35C C42G G44U, the self-cleavage came out at 0.01.

As for C31A U34C U43C C45U, the self-cleavage was found to be 0.15.

In the case of C31A G35U C45G, the self-cleavage is 0.05.

In the case of G33A G36U A39G, the self-cleavage turned out to be 0.02.

For G35A C37U C42A, the self-cleavage was found to be 0.01.

As for G33C C37U A39C, the self-cleavage came to 0.03.

Turning to G33A G35A A39U G40U, the self-cleavage was 0.08.

With G35A A41C U43G, the self-cleavage amounted to 0.02.

Consider G35U C37A G40U C46A, for which the self-cleavage stood at 0.02.

In the case of U32G G33C G40C, the self-cleavage was 0.07.

For the variant A39G G44U C45U C46A, the self-cleavage stood at 0.1.

Turning to U32G U34G C37G, the self-cleavage was 0.02.

G36A A39C C46G: the self-cleavage was found to be 0.4.

As to C31U G40C C45G, the self-cleavage is 0.03.

As to G33A G35A A39C, the self-cleavage came to 0.29.

Turning to C31G G35U C37G, the self-cleavage is 0.

G33A A41C C46U: the self-cleavage amounted to 0.11.

For the variant C31U G40C C46U, the self-cleavage stood at 0.02.

Turning to U32G G40A C45U, the self-cleavage was determined as 0.01.

Turning to G35C A39C G44A, the self-cleavage was found to be 0.02.

Turning to U34A G36U U38A, the self-cleavage amounted to 0.01.

Consider G36A A41C C45U, for which the self-cleavage came out at 0.

In the case of U32A C37A C46A, the self-cleavage is 0.03.

U34C G40C C42G C45G: the self-cleavage stood at 0.11.

For U34C G36C G44U C46G, the self-cleavage was 0.01.

As to U32C G35A G40C, the self-cleavage was determined as 0.02.

For the variant C31U U43C C46U, the self-cleavage was found to be 0.05.

In the case of G33C G36A A39C, the self-cleavage was found to be 0.03.

Regarding C37G A39C G40C C45U, the self-cleavage was 0.05.

As for G36U U38G C46G, the self-cleavage was 0.02.

With G35U G36C G44A, the self-cleavage was 0.07.

In the case of U32G U34G G36C C45U, the self-cleavage came to 0.

With C37U C42A C46G, the self-cleavage amounted to 0.06.

For the variant G35U U38A G44C C45G, the self-cleavage was determined as 0.05.

For the variant C31G A39G G40A, the self-cleavage was found to be 0.

For U34A G40C C46A, the self-cleavage came to 0.05.

Take U32A G33U U38A: the self-cleavage turned out to be 0.12.

Take G33A G35C G36C: the self-cleavage came out at 0.1.

C31U C37G U43C: the self-cleavage turned out to be 0.2.

In the case of G33C A41G G44C C46U, the self-cleavage was found to be 0.06.

On to C37U U38A U43C, for which the self-cleavage came to 0.09.

Turning to C31A G33U G44A, the self-cleavage is 0.02.

For the variant C31U G44A C45G, the self-cleavage was found to be 0.04.

Take C31A G33C G36U: the self-cleavage came out at 0.08.

Turning to U34G A39G U43A, the self-cleavage came to 0.03.

Turning to U32C U34A G36A, the self-cleavage was 0.04.

Consider G35U C37G C46G, for which the self-cleavage amounted to 0.

Consider G33C A39U C46U, for which the self-cleavage was determined as 0.04.

As for G35C U43C G44U, the self-cleavage is 0.

Take A39C A41C C46U: the self-cleavage was 0.1.

For the variant C31U C37G U38A C42G, the self-cleavage amounted to 0.01.

Take C31G C42U G44C: the self-cleavage was determined as 0.03.

In the case of G33U U38C A41C U43C G44C, the self-cleavage came out at 0.06.

For G33U C42A C45G, the self-cleavage amounted to 0.24.

Take G35C A39U C46U: the self-cleavage stood at 0.05.

Consider G36U A41U G44U, for which the self-cleavage was found to be 0.02.

For the variant G33U C42G G44U, the self-cleavage was determined as 0.04.

Turning to U38G C42U C45A, the self-cleavage stood at 0.03.

As to U38A A39U C46A, the self-cleavage turned out to be 0.15.

For C31U G40A C45A, the self-cleavage was found to be 0.01.

Regarding A39C G44A C45U, the self-cleavage amounted to 0.04.

As to U34A A41U C46A, the self-cleavage is 0.04.

Consider G35C U43G G44C, for which the self-cleavage is 0.03.

With C31G G36U U38C C45U, the self-cleavage was 0.07.

Regarding G33C G36U G40A, the self-cleavage came out at 0.02.

Consider C31A G40A C45A, for which the self-cleavage came to 0.1.

With G36U C37U U38C, the self-cleavage was 0.

Turning to U32A U34C A41U, the self-cleavage worked out at 0.02.

Regarding U34C G36A C42U, the self-cleavage amounted to 0.16.

Regarding U32A C37A C42G, the self-cleavage was 0.05.

As to G36U C37U G40C, the self-cleavage turned out to be 0.01.

Take G36U C37U G40A: the self-cleavage turned out to be 0.06.

Turning to G33C U34C U38C, the self-cleavage came to 0.02.

On to A39G G40A G44C, for which the self-cleavage amounted to 0.04.

With G36C G40U U43A, the self-cleavage came to 0.09.

For G36U C42U G44A, the self-cleavage came out at 0.02.

On to C31U C37G G40U A41G, for which the self-cleavage was 0.02.

For G33U A39C C45U, the self-cleavage was determined as 0.

As to A39G G40C G44U C46U, the self-cleavage was found to be 0.07.

Regarding C31U U32C A39G G44A, the self-cleavage was 0.02.

Take C31U U32A U43A: the self-cleavage amounted to 0.27.

Turning to G35C C37G C46U, the self-cleavage is 0.04.

With U32G G36U G40A, the self-cleavage is 0.

With U32G G36U G40U, the self-cleavage was 0.03.

For G33C U38G A41C, the self-cleavage came to 0.

As to U34G A41G C45A, the self-cleavage was 0.

Consider U32C C37U U38C, for which the self-cleavage was found to be 0.08.

Take G36C G44C C45A: the self-cleavage is 0.02.

Regarding U34C C45G C46G, the self-cleavage came to 0.05.

In the case of G36A G40C A41U, the self-cleavage is 0.41.

In the case of U34A C37U C45U, the self-cleavage was 0.04.

U34C U38G C42A: the self-cleavage is 0.04.

As to U34C C37U A41G, the self-cleavage came out at 0.01.

For the variant U34A C42G G44A C45U, the self-cleavage turned out to be 0.02.

In the case of G36C U43A C46A, the self-cleavage amounted to 0.03.

For G35A U38G A39U, the self-cleavage was 0.03.

Regarding U32A G33C C45A, the self-cleavage was determined as 0.02.

As for C31U G35U C45U, the self-cleavage came out at 0.03.

G36A C37G C46G: the self-cleavage came to 0.05.

For U34C C37A C42A, the self-cleavage was 0.1.

Regarding G33U A39U G40C C45G, the self-cleavage stood at 0.04.

Take C31G G33U U43A: the self-cleavage turned out to be 0.04.

In the case of A39U C42G C46U, the self-cleavage worked out at 0.03.

For U32G A39C G44A C45U, the self-cleavage stood at 0.

Consider G33C G36U A41C, for which the self-cleavage worked out at 0.

With U32C U34C G35C, the self-cleavage was 0.11.

Turning to G33C G35U U38A, the self-cleavage turned out to be 0.04.

For the variant G33C C37A A41U, the self-cleavage came out at 0.03.

Regarding G33A G35U C46A, the self-cleavage is 0.

For the variant U38G A41G C45A, the self-cleavage stood at 0.

Consider G33C G40A C45G, for which the self-cleavage was found to be 0.02.

C31G G35A C37G: the self-cleavage amounted to 0.04.

On to G33A U38G G44U, for which the self-cleavage stood at 0.11.

As for U32C C37U C45U, the self-cleavage was determined as 0.07.

For the variant C31U A39G G40C, the self-cleavage amounted to 0.03.

For A39G G44A C45A, the self-cleavage came out at 0.09.

Turning to C31G C42A C45G, the self-cleavage turned out to be 0.04.

Take U38C A39C A41C C42U: the self-cleavage came to 0.05.

As for G36C U43G G44U, the self-cleavage worked out at 0.06.

Regarding U38A C42U U43C, the self-cleavage was 0.09.

As for G36U U38G A39U, the self-cleavage amounted to 0.

For G33A A41C C45U, the self-cleavage was determined as 0.09.

Regarding G36A G40A A41C C45U, the self-cleavage worked out at 0.11.

G36A G40A C42G: the self-cleavage was found to be 0.67.

For the variant G35U C42U U43G C45A, the self-cleavage was found to be 0.03.

In the case of U32G U38G A39U G44A C45U, the self-cleavage came out at 0.04.

Turning to C31U U32G G36U C46A, the self-cleavage worked out at 0.02.

For the variant C31U U43G C45U, the self-cleavage stood at 0.02.

Source of the values: the RNAGym collection of RNA variant scans (doi:10.7554/elife.90254).
